About 11,000 (3.5%) of roughly 310,000 compounds were called active. Inconclusive means that the source gave no clear call. Such entries were picked first, then a sample of the others. Calls come from the whole dose curve; as a rule, active = well fitted inhibition curve with a large enough effect; inconclusive = small, poorly fitted or top-dose-only effect, or effect the other way; inactive = flat fitted curve, though single readings scatter. No potency is given beside an inconclusive call; the fits are too rough.
Test: VP16 counterscreen qHTS for inhibitors of ROR gamma transcriptional activity;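 note: Gal4-VP16 expression switched on by copper sulfate through the metallothionein promoter; nearly all actives have a fitted effect of over 50% in size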
Conditions: Drosophila S2 Gal4-VP16 UAS-luciferase, luminescence, 20 h; activity, negative = inhibition: at 53.6 µM (top of the series)
% is set by controls: 0 for no effect and ±100 for the full control effect; potency is the fitted concentration of half-maximal effect; tags give direction and shape of the fitted curve.

SMILES | Potency | activity, negative = inhibition
O=C(NN=C1c2ccccc2-c2ccccc21)c1ccccn1 | active: 4.47 µM | –
CC(=O)NNC(=O)CN1C(=O)/C(=C/c2ccccc2)SC1=S | inconclusive [inhibitor, partial curve] | –
Cc1cccc(N2CCN(C(=S)Nc3ccc4nc(N5CCOCC5)cc(C)c4c3)CC2C)c1 (stereo not given) | inconclusive [inhibitor, partial curve] | –
COc1ccc(C2=Nc3cc(C)ccc3OC2)cc1 | inconclusive [inhibitor, single point] | –
O=C(Cc1ccccc1)Nc1nc(=O)c2ccccc2s1 | active: 4.47 µM | –
CCN1CCc2c(OCc3ccc(C)cc3)cccc2C1=O | – | inactive: -2.8%
O=C(Nc1nc(-c2nc3ccccc3s2)cs1)C1COc2ccccc2O1 (stereo not given) | inconclusive [inhibitor, single point] | –
CNc1nc(-c2c(C)noc2C)nc2ccccc12 | inconclusive [inhibitor, single point] | –
COC(=O)c1cn(CC(=O)Nc2ccccc2C)c2ccccc12 | – | inactive: 0.978%
O=C(NC1CCCc2ccccc21)C1CCCO1 (stereo not given) | – | inactive: 0.718%
COc1cc(C=O)c(Br)cc1OCc1ccc(C)cc1 | inconclusive [inhibitor, single point] | –
c1ccc(SCCSc2ccccc2)cc1 | inconclusive [activator, single point] | –
O=C1c2ccccc2CC1Sc1nnc(-c2ccncc2)o1 (stereo not given) | inconclusive [inhibitor, single point] | –
CC(=O)c1ccccc1C(=O)N1CCCC(C(=O)c2ccc(C(F)(F)F)cc2)C1 (stereo not given) | inconclusive [inhibitor, full curve] | –
Cc1ccc(-n2c(-c3ccco3)n[nH]c2=S)cc1 | inconclusive [inhibitor, single point] | –
COC(=O)N/N=C/c1cc([N+](=O)[O-])cc(Br)c1O | inconclusive [inhibitor, single point] | –
CN(C)C(CNC(=S)Nc1cccc(Cl)c1)c1ccccc1 (stereo not given) | active: 12.6 µM | –
CSc1ccc(C(=S)N2CCCC2)cc1 | inconclusive [activator, partial curve] | –
CSc1nccc(N2CCN(c3ccc(F)cc3)CC2)n1 | active: 12.6 µM | –
O=c1cc(CSc2nnc(-c3ccco3)o2)c2ccccc2[nH]1 | inconclusive [inhibitor, single point] | –
Cc1ccc(NC(=O)CN(C)C(=O)c2cccnc2Nc2cccc(C(F)(F)F)c2)cc1 | active: 12.6 µM | –
COc1ccc(/C=C2\SC(=N)N(c3nccs3)C2=O)cc1OC | inconclusive [inhibitor, full curve, poor fit] | –
COc1cccc(C(=O)NC(=S)Nc2ccc(Cl)cc2C(=O)O)c1 | active: 7.08 µM | –
CCOc1ccc2c(c1)C(N(CCN1CCOCC1)C(=S)Nc1ccccc1OC)CC(C)(C)O2 (stereo not given) | inconclusive [inhibitor, single point] | –
O=C(NNC(=S)Nc1ccccc1Cl)C1CC1 | inconclusive [inhibitor, single point] | –

SMILES | Potency | activity, negative = inhibition
Cc1cc(C)n(-c2nc(NCCCN(C)C)c3c4c(sc3n2)CCCC4)n1 | active: 7.08 µM | –
Cc1ccc2c(c1)N(C(=O)CCC(=O)NCCCN1CC(C)CC(C)C1)CCO2 (stereo not given) | – | inactive: -4.53%
COc1cccc(-c2cccc(NC(=O)C3CCN(Cc4cccc(C)n4)CC3)c2)c1 | inconclusive [activator, single point] | –
CCC1=Nc2cc(C(=O)NCCN3CCOCC3)ccc2Sc2ccc(C)cc21 | – | inactive: 2.27%
Cc1cccc2cc(COC(=O)c3ccco3)c(=O)[nH]c12 | – | inactive: 2.28%
COC(=O)CCNC(=O)c1nn(Cc2ccccc2)c(=O)c2ccccc12 | – | inactive: 1.12%
O=C(COc1ccc(/C=N/NC(=O)CSCc2ccc([N+](=O)[O-])cc2)cc1)NCc1ccco1 | inconclusive [activator, single point] | –
CSCCC1C(=O)OC2(C)CC(C)(C)NC(=S)N12 (stereo not given) | inconclusive [inhibitor, single point] | –
O=C(N/N=C/C1C(c2ccccc2)C1(Cl)Cl)c1cccc(Cl)c1 (stereo not given) | active: 4.47 µM | –
CC(=O)Oc1ccc(C(=O)Nc2cccc(C(=O)c3cccc(NC(=O)c4ccc(OC(C)=O)cc4)c3)c2)cc1 | inconclusive [inhibitor, single point] | –
CCC(C)(C)c1ccc(Oc2cccc(C(=O)O)c2)cc1 | inconclusive [inhibitor, full curve] | –
COc1ccc(-n2c(=S)[nH]c3sc4c(c3c2=O)CCN(C)C4)cc1 | – | inactive: -7.9%
S=C(Nc1ccccc1Cl)N(Cc1ccccc1)Cc1ccccn1 | – | inactive: -4.81% [at 10 µM]
CCCC(=O)Nc1ccc2c(c1)Cc1ccccc1-2 | inconclusive [activator, partial curve] | –
COCCn1c(C)cc(C(=O)COC(=O)c2ccc[nH]c2=O)c1C | active: 3.55 µM | –
CCOC(=O)c1cc(C#N)c(Oc2ccccc2OC)nc1-c1ccccc1 | – | inactive: -4.46%
CCCn1c(=N)n(CC(=O)c2ccc(Cl)c(Cl)c2)c2ccccc21 | inconclusive [inhibitor, single point] | –
CN(c1cccc(NS(=O)(=O)c2cccs2)c1)S(C)(=O)=O | inconclusive [inhibitor, single point] | –
COc1cc2c(c(OC)c1OC)-c1ccc(OC)c(=O)cc1[C@H](NC(C)=O)CC2 | inactive | –
COc1ccc(/C=C2\SC(=S)N(C(C)C(=O)NC3C=CS(=O)(=O)C3)C2=O)cc1 (stereo not given) | – | inactive: 24.8%
Fc1ccc(-c2cnn3c(-c4cccs4)ccnc23)cc1 | inconclusive [inhibitor, single point] | –
COc1ccc(OCc2nnc(SCC(=O)N(C)Cc3ccccc3)n2N)cc1 | – | inactive: 6.28%
NS(=O)(=O)c1ccc(NC(=S)N2CCN(Cc3ccc(Cl)c(Cl)c3)CC2)cc1 | inconclusive [inhibitor, single point] | –
NC(N)=N/N=C/c1ccc(OCc2ccccc2Cl)cc1 | inconclusive [inhibitor, single point] | –
COc1cc(CNc2ccc(N3CCOCC3)cc2)cc(Br)c1OC | inconclusive [inhibitor, single point] | –

SMILES | Potency | activity, negative = inhibition
CC(=O)Nc1ccc(N(C(=O)CNC(=O)c2ccco2)C(C(=O)NCc2ccco2)c2ccccc2F)cc1 (stereo not given) | – | inactive: -6.1%
CCOC(=O)C1CCN(C(=O)c2cc3c(s2)-c2ccccc2OC3)CC1 | inconclusive [inhibitor, full curve, poor fit] | –
CN(C1CCS(=O)(=O)C1)S(=O)(=O)c1ccccc1 (stereo not given) | inconclusive [inhibitor, partial curve] | –
N#C/C(=C\c1ccc(OC(=O)c2ccc(Br)s2)cc1)c1nc2ccccc2[nH]1 | inconclusive [inhibitor, single point] | –
S=c1[nH]nc(Cc2cccs2)n1-c1cccc2ccccc12 | inconclusive [inhibitor, partial curve] | –
COc1cccc(C2=NN(C(=O)c3ccc(C)o3)C(O)(C(F)(F)F)C2)c1 (stereo not given) | inconclusive [inhibitor, single point] | –
O=C(CCCN=C1NS(=O)(=O)c2ccccc21)OCC(=O)N1CCc2ccccc21 | – | inactive: 8.12%
CC(C)c1nnc(NC(=O)c2ccc3c(c2)OCO3)s1 | inconclusive [inhibitor, partial curve] | –
COc1cccc(CN2CCN(C(=S)NCc3ccc(Cl)cc3)CC2)c1 | – | inactive: -19%
CCCc1cc(C(=O)Nc2cc(C)ccc2O)no1 | inconclusive [inhibitor, single point] | –
O=C(N/N=C/c1cccs1)c1cc(-c2cccc3ccccc23)n[nH]1 | active: 5.01 µM | –
CC1CCc2cccc3c2N1c1cc(C#N)c(C#N)cc1O3 (stereo not given) | – | inactive: -5.03%
CCN(CC)c1ccc(NC(=O)c2c(OC)cccc2OC)c(C)c1 | – | inactive: 7.7%
CC(/C=C/c1ccc2c(c1)OCO2)=N\NC(=O)c1ccccc1 | active: 15.8 µM | –
S=C(Nc1ccc(Br)cc1)NC1CCCC1 | active: 10 µM | –
Cc1ccc(NCC(=O)Nc2c(C)n(C)n(-c3ccccc3)c2=O)cc1S(=O)(=O)N(C)C | – | inactive: -5.9%
Cc1ccc(C(=O)N/N=C/c2ccoc2)cc1C | inconclusive [inhibitor, partial curve, poor fit] | –
Cc1ccccc1C(=O)O/N=C(\N)c1ccc([N+](=O)[O-])cc1 | inconclusive [inhibitor, single point] | –
COc1ccc(C)cc1NC(=O)c1ccccc1NS(=O)(=O)c1ccc(Cl)s1 | inconclusive [inhibitor, single point] | –
CCCN(CC1COc2ccccc2O1)C(=S)Nc1ccc(C)cc1 (stereo not given) | active: 12.6 µM | –
CNC(=O)c1[nH]cnc1C(=O)Nc1ccc(C)cc1 | active: 4.47 µM | –
COC(=O)c1sc2ccccc2c1-n1cccc1C(=O)C(=O)Nc1ccccc1 | – | inactive: 11.8%
O=C(O)c1ccc(CSc2nnc(-c3ccccc3Br)o2)cc1 | inconclusive [inhibitor, full curve] | –
Cc1ccc(C(=O)c2ccccc2C(=O)OCC(=O)Nc2cccc([N+](=O)[O-])c2)cc1 | inconclusive [inhibitor, single point] | –
O=C(NCCc1ccc(Cl)cc1)c1ccc2nc(N3CCOCC3)sc2c1 | inconclusive [inhibitor, single point] | –

Source: PubChem BioAssay AID2546 (National Center for Advancing Translational Sciences (NCATS), 2010)
